In publication PMC4336329 (PLoS ONE, 2015):
Screen size: about 310,000 compounds; about 14,000 (4.5%) showed an effect of 50% or more. The effect is printed as a negative number. The list shows a part of the results.

target: human ether-à-go-go-related gene (hERG) potassium channel (human, UniProt Q12809); assay: primary screen, population patch clamp on CHO cells stably expressing hERG
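Also: peak tail current of the secondary pulse compared with the same well before compound.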

Sequence of human ether-à-go-go-related gene (hERG) potassium channel (Q12809 whole entry, looked up): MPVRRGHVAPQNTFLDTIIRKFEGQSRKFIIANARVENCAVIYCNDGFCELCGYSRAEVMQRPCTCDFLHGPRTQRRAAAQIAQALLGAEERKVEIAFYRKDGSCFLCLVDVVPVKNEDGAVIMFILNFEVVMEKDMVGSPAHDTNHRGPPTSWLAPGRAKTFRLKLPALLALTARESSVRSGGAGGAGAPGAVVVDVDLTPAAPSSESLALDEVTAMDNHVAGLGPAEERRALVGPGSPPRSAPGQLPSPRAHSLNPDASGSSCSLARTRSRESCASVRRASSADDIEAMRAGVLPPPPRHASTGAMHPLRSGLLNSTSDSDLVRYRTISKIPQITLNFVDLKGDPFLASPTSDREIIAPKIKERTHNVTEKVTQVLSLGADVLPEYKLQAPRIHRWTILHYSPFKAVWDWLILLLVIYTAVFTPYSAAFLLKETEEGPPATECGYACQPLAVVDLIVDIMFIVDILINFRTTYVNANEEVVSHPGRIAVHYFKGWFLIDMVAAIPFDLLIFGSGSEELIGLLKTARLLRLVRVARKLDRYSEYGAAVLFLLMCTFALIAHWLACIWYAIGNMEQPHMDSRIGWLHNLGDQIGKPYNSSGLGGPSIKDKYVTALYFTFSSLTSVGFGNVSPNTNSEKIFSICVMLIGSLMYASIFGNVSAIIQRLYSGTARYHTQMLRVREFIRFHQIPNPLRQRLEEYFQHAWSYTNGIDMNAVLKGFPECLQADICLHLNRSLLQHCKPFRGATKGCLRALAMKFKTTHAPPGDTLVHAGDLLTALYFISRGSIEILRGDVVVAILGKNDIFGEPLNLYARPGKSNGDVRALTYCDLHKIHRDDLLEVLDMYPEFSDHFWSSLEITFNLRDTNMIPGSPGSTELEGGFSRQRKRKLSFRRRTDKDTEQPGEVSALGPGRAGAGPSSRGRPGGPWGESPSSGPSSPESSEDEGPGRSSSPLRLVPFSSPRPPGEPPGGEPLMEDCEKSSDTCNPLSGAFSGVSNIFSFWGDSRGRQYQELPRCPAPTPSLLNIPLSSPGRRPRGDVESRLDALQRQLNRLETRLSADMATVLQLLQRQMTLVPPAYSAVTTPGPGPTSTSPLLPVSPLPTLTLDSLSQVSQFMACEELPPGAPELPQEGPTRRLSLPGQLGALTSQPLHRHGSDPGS

| Compound | hERG current change (%, negative = inhibition) at 10uM |
| --- | --- |
| CCCC(=O)Nc1c2c(nn1-c1ccc(C)cc1C)CSC2 | -14.5% |
| O=C(CN1CCCC1)Nc1sc2c(c1C(=O)Nc1ccc(Br)cc1)CCC2 | -1.29% |
| O=c1c2ccccc2nc2n1CCN2 | 8.54% |
| O=C(CCN1CCN(C(=O)c2ccco2)CC1)Nc1ccc(F)cc1 | -22.4% |
| Cc1ccc(NC(=O)c2cn(-c3cccc(C)n3)cn2)cc1 | 2.19% |
| CCCCn1c(N)c(Sc2ccccc2[N+](=O)[O-])c(=O)[nH]c1=O | 10.7% |
| O=C(CSc1nnnn1-c1ccccc1)N1CCCc2ccccc21 | -6.72% |
| CCOCCn1c(CN2CCN(c3ccc(OC)cc3)CC2)nc2c1c(=O)n(C)c(=O)n2C | -41.2% |
| O=C(CC1CCCCC1)Nc1c2c(nn1-c1ccc(F)cc1)CS(=O)(=O)C2 | -14.3% |
| Cc1ccc(C)c(NC(=O)Cn2c(=O)n(-c3ccc(CC(=O)NCC4CCCO4)cc3)c(=O)c3ccccc32)c1 (centres unmarked) | 15.5% |
| COc1ccc(N2CCN(C(=O)c3ccc(N4C(=O)NC5CC4(C)Oc4ccccc45)cc3)CC2)cc1 (centres unmarked) | -6.29% |
| CCC(NC(=O)Cc1c(C)c2cc3c(cc2oc1=O)OC(C)(C)CC3)C(=O)O (centres unmarked) | 21.2% |
| O=C(NNS(=O)(=O)Cc1ccccc1)c1ccc([N+](=O)[O-])cc1 | -17% |
| CCc1ccc(C2C(C#N)=C(N)SC(N)=C2C#N)cc1 | 9.3% |
| CCN1CCN(S(=O)(=O)c2ccc(C(=O)Nc3sc4c(c3C(N)=O)CCN(CC)C4)cc2)CC1 | 12.4% |
| O=C(CN1CCN(c2ccccn2)CC1)N(c1ccccc1)c1ccc2ccccc2c1 | -49.2% |
| COc1ccc(N2C(=O)NC(=O)/C(=C/c3ccc(N4CCOCC4)cc3)C2=O)cc1 | 0.773% |
| O=Cc1c(N2CCCCCC2)nc2ccccn2c1=O | 1.82% |
| CCCCN(C(=O)Cc1cccc(F)c1)c1c(N)n(CCC)c(=O)[nH]c1=O | 7.66% |
| Cn1ccnc1Sc1ccc(C(N)=O)cc1[N+](=O)[O-] | 12.9% |
| O=[N+]([O-])c1cccc(S(=O)(=O)N/N=C/c2ccc(O)cc2)c1 | 1.14% |
| COCCCNS(=O)(=O)c1cc2c3c(c1)C(C)C(=O)N3CCC2 (centres unmarked) | 16.4% |
| CN(C)CCN(C(=O)c1ccc(S(=O)(=O)N(C)c2ccccc2)cc1)c1nc2cc3c(cc2s1)OCCO3.Cl | -1.95% |
